{"source": "PubChem BioAssay AID588855", "about": "(National Center for Advancing Translational Sciences (NCATS), 2011)", "note": "The campaign covered roughly 410,000 compounds. About 5,000 (1.2%) were called active. This list was built around the results that the source calls inconclusive (neither active nor inactive); the mix of calls is not that of the screen. The call rests on the fitted dose curve; in most records, active means well fitted inhibition curve with a large enough effect; inconclusive means small, poorly fitted or top-dose-only effect; inactive means no such curve, though single readings can be large or run the other way. Where the call is inconclusive, the potency comes from a doubtful curve fit. Potency means the concentration at half of the fitted maximal effect; tags describe the fitted curve by direction and shape."}
{"assay": "qHTS for Inhibitors of TGF-b; further: nearly all actives have a fitted effect of over 65% in size", "conditions": "HepG2 CAGA-GFP TGF-b/SMAD3 reporter, GFP fluorescence, 18 h, TGF-beta stimulated, 500 pg/mL final; series mostly up to 46.1 µM", "how_it_was_run": "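HEPG2 CAGA-GFP, 1000 cells/well; 2 h settle, 37 C; cpd via pin tool; TGF-b 500 pg/mL final; 18 h, 37 C; GFP imaging ex488/em500-530; %Activity normalised to -TGF-b and +DMSO controls; CRC fit, curve class.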"}
{"smiles": "CCn1c2ccccc2c2nnc(SCC(=O)N3CC(C)OC(C)C3)nc21", "note": "(configuration not stated)", "Potency": "inactive"}
{"smiles": "Cc1nnc2n(c1=O)C(CS(=O)(=O)c1ccc3ccccc3c1)CS2", "note": "(configuration not stated)", "Potency": "inconclusive: 6.31 µM [inhibitor, single point]"}
{"smiles": "Clc1ccccc1-c1nc(-c2ccccc2)n[nH]1", "Potency": "inactive"}
{"smiles": "COc1ccc(-c2nc(N)n(C(=O)c3ccccc3Cl)n2)cc1", "Potency": "inactive"}
{"smiles": "CN(C)C(=O)c1cccc(-c2cnc3c(NC=O)cc(-c4ccccc4F)cn23)c1", "Potency": "inconclusive: 11.2 µM [inhibitor, partial curve, poor fit]"}
{"smiles": "CC(C)CN(C(=O)CN(C)S(=O)(=O)c1ccc(Cl)cc1)C1CCS(=O)(=O)C1", "note": "(configuration not stated)", "Potency": "inconclusive: 2.51 µM [inhibitor, full curve]"}
{"smiles": "COc1ccc(-c2ccnc3nc(Sc4ncc(C(F)(F)F)cc4Cl)nn23)cc1", "Potency": "inconclusive: 35.5 µM [inhibitor, single point]"}
{"smiles": "COc1cc(CNC(=O)c2ccc(NC(=O)N3CCCCc4ccccc43)cc2)cc(OC)c1OC", "Potency": "inconclusive: 0.708 µM [inhibitor, partial curve, poor fit]"}
{"smiles": "COc1ccc(C(=O)c2c3ccc(OC)cc3[n+]([O-])n2Cc2ccc(C(N)=O)cc2)cc1", "Potency": "inactive"}
{"smiles": "CCOC(=O)c1[nH]c(C)c(CCC(=O)N2CCN(c3cc(C)ccc3C)CC2)c1C", "Potency": "inconclusive: 15.8 µM [inhibitor, single point]"}
{"smiles": "Clc1cccc(COn2c(-c3ccc(Cl)cc3Cl)nc3ncccc32)c1", "Potency": "inconclusive: 35.5 µM [inhibitor, single point]"}
{"smiles": "CC(Sc1nnnn1-c1ccc(Cl)cc1)C(=O)NCC(=O)Nc1ccc(F)c(F)c1F", "note": "(configuration not stated)", "Potency": "inconclusive: 35.5 µM [inhibitor, single point]"}
{"smiles": "CC1(C(=O)OCC(=O)Nc2nc(-c3ccc(F)c(F)c3)cs2)CC1(Cl)Cl", "note": "(configuration not stated)", "Potency": "inconclusive: 35.5 µM [inhibitor, single point]"}
{"smiles": "Cc1ccc(C(=O)Nc2ccc(N3CCN(C(=O)c4cccs4)CC3)cc2)c(Cl)c1", "Potency": "inconclusive: 11.2 µM [inhibitor, single point]"}
{"smiles": "O=C(NC1CCCCCC1)C1CCN(S(=O)(=O)c2c(Cl)cccc2Cl)CC1", "Potency": "inconclusive: 4.47 µM [inhibitor, full curve, poor fit]"}
{"smiles": "Cc1cc2c(cc(C(=O)NCCCN3CCOCC3)n2Cc2ccc(Cl)cc2)o1", "Potency": "inconclusive: 28.2 µM [inhibitor, single point]"}
{"smiles": "Cn1c2c(c(=O)n(C)c1=O)C(c1ccc(F)cc1)C(C#N)=C(N)O2", "note": "(configuration not stated)", "Potency": "inactive"}
{"smiles": "O=C1C=C(c2cccs2)C[C@H](c2ccccc2)[C@H]1n1nnc([N+](=O)[O-])n1", "Potency": "inconclusive: 35.5 µM [inhibitor, single point]"}
{"smiles": "COc1ccccc1CNC(=O)COC(=O)c1cnc(C)cn1", "Potency": "inactive"}
{"smiles": "CCCCC(=O)NC(=S)Nc1nnn(CCC)n1", "Potency": "inconclusive: 10 µM [inhibitor, partial curve, poor fit]"}
{"smiles": "CNC(=S)Nc1ccc(C23CC4CC(CC(C4)C2)C3)cc1", "Potency": "inconclusive: 17.8 µM [inhibitor, single point]"}
{"smiles": "CC1N(C)c2cc(NC(=O)c3ccco3)ccc2C1(C)C", "note": "(configuration not stated)", "Potency": "inconclusive: 25.1 µM [inhibitor, partial curve, poor fit]"}
{"smiles": "COc1ccc(CNC(=O)c2cnn(-c3ccccc3)c2-n2cccc2)cc1OC", "Potency": "inconclusive: 31.6 µM [inhibitor, single point]"}
{"smiles": "CCOc1ccccc1C1CC(=O)Nc2cc3c(cc21)OCO3", "note": "(configuration not stated)", "Potency": "inactive"}
{"smiles": "CCCn1nnnc1COc1ccc(C(N)=O)cc1", "Potency": "inactive"}
{"smiles": "CCOc1ccc(NC(=S)N(Cc2ccc(N(C)C)cc2)Cc2ccco2)cc1", "Potency": "inactive"}
{"smiles": "CCO[C@@H]1OC(C(=O)N2CCN(Cc3ccc4c(c3)OCO4)CC2)=C[C@H](c2cn(C(C)=O)c3ccccc23)[C@H]1CCCO", "Potency": "inconclusive: 6.31 µM [inhibitor, single point]"}
{"smiles": "COC(=O)c1ccc(NC(=O)Nc2ccc(F)c(Cl)c2)cc1", "Potency": "inconclusive: 10 µM [inhibitor, partial curve]"}
{"smiles": "CCn1c(=O)cc(OCC(=O)NCc2ccccc2OC)c2ccccc21", "Potency": "inconclusive: 35.5 µM [inhibitor, single point]"}
{"smiles": "Cc1ccccc1Nc1nn2c(=O)c3ccc(C(=O)NCc4ccccc4)cc3nc2s1", "Potency": "inconclusive: 15.8 µM [inhibitor, single point]"}
{"smiles": "CSC1=NC(C)(C)C=C(/C=C/c2ccc(Cl)cc2)N1", "Potency": "inconclusive: 35.5 µM [inhibitor, single point]"}
{"smiles": "COc1cccc(Cn2c(=O)n(-c3cccc(Cl)c3)c(=O)c3c4c(sc32)CN(C(C)=O)CC4)c1", "Potency": "inconclusive: 35.5 µM [inhibitor, single point]"}
{"smiles": "CCOc1cc(OCC)cc(C(=O)Nc2cccc(-c3nc4ccccc4[nH]3)c2)c1", "Potency": "inconclusive: 20 µM [inhibitor, partial curve, poor fit]"}
{"smiles": "COc1ccccc1-c1nnc(C2CCN(C(=O)c3cccc(C)c3)CC2)o1", "Potency": "inconclusive: 35.5 µM [inhibitor, single point]"}
{"smiles": "C=CCn1c(CCSCc2ccc(OC)c(C)c2)n[nH]c1=S", "Potency": "inactive"}
{"smiles": "CCOC(=O)N1CCN(C(=O)C2CCN(c3ncnc4c3sc3cccc(F)c34)CC2)CC1", "Potency": "inconclusive: 35.5 µM [inhibitor, partial curve, poor fit]"}
{"smiles": "O=C(Nc1cccc(S(=O)(=O)N2CCCCC2)c1)c1ccc2c(c1)OCO2", "Potency": "inconclusive: 31.6 µM [inhibitor, single point]"}
{"smiles": "CCc1ccc(NC(=O)Cn2c(=O)n(CCCCC(=O)NCc3ccccc3Cl)c(=O)c3ccccc32)cc1", "Potency": "inactive"}
{"smiles": "COC(=O)c1cccc2c1NC(=O)C2=O", "Potency": "inconclusive: 31.6 µM [inhibitor, single point]"}
{"smiles": "CC1=C(C(N)=O)C(c2ccc(F)cc2)n2nc(CCCO)nc2N1", "note": "(configuration not stated)", "Potency": "inconclusive: 35.5 µM [inhibitor, single point]"}
{"smiles": "CCc1nc2c(cnn2-c2ccc(C)cc2)c(=O)n1Cc1ccccc1", "Potency": "inconclusive: 12.6 µM [inhibitor, partial curve, poor fit]"}
{"smiles": "Cc1ccccc1CN(C)C(=O)COC(=O)c1ccc2[nH]c(C)c(C)c2c1", "Potency": "inactive"}
{"smiles": "CC1(C)Cc2ccccc2C(c2cc3ccccc3oc2=O)=N1", "Potency": "inactive"}
{"smiles": "Fc1ccccc1N1CC(c2ccccc2)C(c2cccs2)=N1", "note": "(configuration not stated)", "Potency": "inconclusive: 11.2 µM [inhibitor, partial curve, poor fit]"}
{"smiles": "O=C(COc1ccccc1Cl)Nc1nc(-c2cccs2)cs1", "Potency": "inconclusive: 35.5 µM [inhibitor, single point]"}
{"smiles": "O=C(Nc1cccc(S(=O)(=O)Nc2ccc(Cl)cc2)c1)c1ccc2c(c1)OCCO2", "Potency": "inconclusive: 22.4 µM [inhibitor, single point]"}
{"smiles": "O=C(c1cccs1)N1CCN(C2CCCCC2)CC1", "Potency": "inactive"}
{"smiles": "CC(C)(C)OC(=O)N1CCC(NC(=O)c2nc[nH]c2C(=O)NC2CCN(C(=O)OC(C)(C)C)CC2)CC1", "Potency": "inconclusive: 6.31 µM [inhibitor, single point]"}
{"smiles": "CC(=O)c1ccc(N2CCN(S(=O)(=O)c3ccc4c(c3)C(Cl)(Cl)C(=O)N4)CC2)cc1", "Potency": "active: 22.4 µM"}
{"smiles": "Cc1ccc(NC(=O)c2oc3ccccc3c2NC(=O)Cc2ccccc2)cc1", "Potency": "inactive"}
{"smiles": "CCOc1ccc(NC(=O)CN(C)C(=O)COc2cccc(CC)c2)cc1OCC", "Potency": "inconclusive: 3.98 µM [inhibitor, single point]"}
{"smiles": "Cc1ccc(S(=O)(=O)N2CCN(C(=O)N(c3ccccc3)c3ccccc3)CC2)cc1", "Potency": "inconclusive: 11.2 µM [inhibitor, partial curve]"}
{"smiles": "Cc1c(C(=O)NCc2ccc3c(c2)OCCO3)sc(=O)n1Cc1ccc(S(=O)(=O)N(C)C)cc1", "Potency": "inconclusive: 11.2 µM [inhibitor, single point]"}
{"smiles": "Cc1cc(Cn2nc(-c3ccccc3C)cc2C(=O)O)on1", "Potency": "inconclusive: 0.562 µM [inhibitor, full curve, poor fit]"}
{"smiles": "CCN(CC)CCNS(=O)(=O)c1ccc2c3c(cccc13)C(=O)N2", "Potency": "inconclusive: 35.5 µM [inhibitor, single point]"}
{"smiles": "CCc1nc2c(OCCOc3ccc(F)cc3)cccn2c1N(C)C(=O)CC(C)C", "Potency": "inconclusive: 10 µM [inhibitor, partial curve]"}
{"smiles": "CCCN1C(=O)c2[nH]nc(-c3ccccc3)c2C1c1cccc(O)c1", "note": "(configuration not stated)", "Potency": "inactive"}
{"smiles": "Fc1ccc(Nc2nc(Oc3ccccc3F)nc(N3CCCC3)n2)cc1", "Potency": "inconclusive: 35.5 µM [inhibitor, single point]"}
{"smiles": "COc1ccc(C(C(=O)NC2CCCCC2)N(C(=O)CCl)c2ccc(OC)cc2)cc1", "note": "(configuration not stated)", "Potency": "inconclusive: 5.62 µM [inhibitor, single point]"}
{"smiles": "Clc1ccc(OCc2nnc3n2N=C(c2ccc4c(c2)OCCO4)CS3)c(Cl)c1", "Potency": "inconclusive: 6.31 µM [inhibitor, single point]"}
{"smiles": "Cc1cc(C)n(CCc2nc3c4ccccc4nc(N4CCN(c5cccc(C)c5C)CC4)n3n2)n1", "Potency": "inactive"}
{"smiles": "C/C(=N\\NC(=O)c1ccc(NS(=O)(=O)c2cccs2)cc1)c1ccc(Cl)cc1", "Potency": "inactive"}
{"smiles": "CSc1ccccc1C(=O)N(C)C(c1ccccc1)c1ccccc1", "Potency": "inconclusive: 35.5 µM [inhibitor, single point]"}
{"smiles": "Clc1cccc(Cc2c(-c3cccc(Cl)c3)nc3ccc(Br)cn23)c1", "Potency": "active: 14.1 µM"}
{"smiles": "COC(=O)[C@@H](Cc1ccccc1)NC(=O)NCCc1ccc(OC)c(OC)c1", "Potency": "inactive"}
{"smiles": "O=S(=O)(NCCS(=O)(=O)N1CCN(c2cccc(Cl)c2)CC1)c1ccc(F)cc1", "Potency": "inactive"}
{"smiles": "CC(=O)NN1C(=O)c2ccc3c4c(ccc(c24)C1=O)C(=O)N(NC(C)=O)C3=O", "Potency": "active: 7.94 µM"}
